Test results taken from PubChem BioAssay AID624417 (National Center for Advancing Translational Sciences (NCATS), 2012).
The campaign covered roughly 410,000 compounds. About 6,400 (1.6%) were called active. Inconclusive results, whose numbers are uncertain, are shown with a selection of clear calls. Calls follow the shape of the dose curve; as a rule, active = well fitted inhibition curve with a large enough effect; inconclusive = small, poorly fitted or top-dose-only effect; inactive = no such curve, though single readings can be large or run the other way. Where the call is inconclusive, the potency comes from a doubtful curve fit.

target: Glucagon-like peptide 1 receptor (Homo sapiens) (UniProt P43220); assay: qHTS of GLP-1 Receptor Inverse Agonists (Inhibition Mode); conditions: HEK293 GLP-1R CRE-luciferase, luminescence, 24 h, GLP-1R form is constitutively active; activity change, negative = inhibition: at 38.3 µM (top of the series) unless noted; also: nearly all actives have a fitted effect of over 55% in size
Chain of UniProt P43220 (P43220 whole entry, looked up): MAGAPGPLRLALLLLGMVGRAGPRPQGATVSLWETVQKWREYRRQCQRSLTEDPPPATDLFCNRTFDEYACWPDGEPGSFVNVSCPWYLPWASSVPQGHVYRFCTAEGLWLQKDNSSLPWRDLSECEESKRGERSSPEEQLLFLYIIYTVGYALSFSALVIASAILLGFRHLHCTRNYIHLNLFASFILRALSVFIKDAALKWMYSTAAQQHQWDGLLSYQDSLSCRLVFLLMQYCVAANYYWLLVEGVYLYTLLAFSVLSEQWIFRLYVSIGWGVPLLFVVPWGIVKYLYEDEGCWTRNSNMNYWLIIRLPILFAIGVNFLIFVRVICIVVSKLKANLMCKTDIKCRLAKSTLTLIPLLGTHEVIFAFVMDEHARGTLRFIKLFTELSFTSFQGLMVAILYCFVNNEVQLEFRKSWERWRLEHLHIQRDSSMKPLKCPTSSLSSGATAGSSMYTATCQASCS
Procedure, shortened: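 Stable HEK293 clone (constitutively active GLP-1R + cAMP-response luciferase); 200 cells/uL plated, 12 h pre-culture, compound 24 hr, 37 deg C/5% CO2; detection reagent 12 min RT; luminescence.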
% is scaled to controls: 0 for no effect and ±100 for the full control effect; potency is read from the fitted curve at half-maximal effect; tags tell the direction and shape of the fitted curve.

Potency, active:
CC(/C=N/NC(=O)c1cccc(F)c1)=C\c1ccccc1 10 µM, CCC(C)Sc1cc(-c2nc3ccccn3c2NC2CCCCC2)ccc1OC (configuration not stated) 5.62 µM, Cc1[nH]n2c(=O)cc(-c3ccc(Cl)cc3)nc2c1-c1ccccc1 2.82 µM

Potency, inconclusive:
O=C(CN1C(=O)NC2(CCc3ccccc32)C1=O)c1c[nH]c2ccccc12 (configuration not stated) 17.8 µM [inhibitor, partial curve, poor fit], COc1ccc(CN(C)C(=O)c2ccccc2Sc2ccccc2C#N)c(OC)c1 22.4 µM [inhibitor, single point], N#Cc1nc(-c2ccc(OCc3ccccc3)cc2)oc1NCCCn1ccnc1 2.82 µM [inhibitor, partial curve, poor fit], CCCCCn1nc(C(=O)OCc2nc(N)nc(Nc3ccccc3)n2)c2ccccc2c1=O 0.501 µM [inhibitor, full curve, poor fit], O=C(CN1C(=O)COc2ccc(S(=O)(=O)N3CCCCCC3)cc21)Nc1cccc(Cl)c1 10 µM [inhibitor, partial curve, poor fit], CC1Cc2cc(-c3csc(NC(=O)Cc4cccs4)n3)ccc2N1S(C)(=O)=O (configuration not stated) 11.2 µM [inhibitor, single point], Cc1ccc(S(=O)(=O)N(C)CC(O)Cn2c3ccccc3c3ccccc32)cc1 (configuration not stated) 11.2 µM [inhibitor, partial curve, poor fit], COc1cc(C2c3cc4c(cc3OC(Nc3ccc(C(=O)O)cc3)C2C)OCO4)cc(OC)c1OC (configuration not stated) 0.501 µM [inhibitor, full curve, poor fit], COc1ccc(C)cc1NC(=O)CCc1c(C)nn(-c2ccc(N3CCCCC3)nn2)c1C 28.2 µM [inhibitor, single point], CC(C)N1CCN(Cc2cccc(-c3ccco3)c2)CC1CCO (configuration not stated) 0.251 µM [inhibitor, full curve, poor fit], O=C(NCCC1CCCCN1S(=O)(=O)c1ccccc1)C(=O)Nc1ccc(F)cc1F (configuration not stated) 12.6 µM [inhibitor, partial curve, poor fit], Cc1ccc(CCNC(=O)C2CCCN(S(=O)(=O)c3c(C)noc3/C=C/N(C)C)C2)cc1 (configuration not stated) 11.2 µM [inhibitor, partial curve, poor fit], CCOc1ccccc1N(CC(=O)N(C)Cc1ccccc1)S(=O)(=O)c1ccccc1 10 µM [inhibitor, partial curve, poor fit], CC(C)c1ccc(NC(=O)NC(C)c2ccc3c(c2)OCO3)cc1 (configuration not stated) 14.1 µM [inhibitor, partial curve, poor fit], CN1C(=O)C(CC(=O)Nc2ccc(F)cc2)N(Cc2cccs2)C1=S (configuration not stated) 31.6 µM [inhibitor, partial curve, poor fit], COC(=O)c1ccc(Oc2nc(NC(C)C)nc(SC)n2)cc1 31.6 µM [inhibitor, single point], Cn1c(-c2ccccc2)c(/C=N/NC(=O)c2cccnc2)c2ccccc21 20 µM [inhibitor, single point], CCOc1ccccc1NC(C)C(=O)Nc1cc(C(F)(F)F)ccc1N1CCOCC1 (configuration not stated) 11.2 µM [inhibitor, single point], CCN(CC)CCNc1ccc(CO)c2sc3ccccc3c(=O)c12 11.2 µM [inhibitor, partial curve, poor fit], Cc1cccc(C)c1NC(=O)CN1CCN(C(=O)CNC(=O)c2ccc(-c3ccccc3)cc2)CC1 6.31 µM [inhibitor, partial curve, poor fit], CC1Cn2c(C(=O)NCCc3ccc(Cl)cc3)cc3cccc(c32)S1 (configuration not stated) 28.2 µM [inhibitor, single point], CCOc1ccc(S(=O)(=O)NCCC(=O)NCC(c2ccc(OC)cc2)N2CCCCC2)cc1 (configuration not stated) 25.1 µM [inhibitor, single point], COc1cc(/C=N/NC(=O)c2ccccc2)ccc1OS(=O)(=O)c1ccccc1 7.94 µM [inhibitor, partial curve, poor fit], COc1ccc(N2CCN(CCCNC(=O)Cn3c(=O)c4cccn4c4cccnc43)CC2)cc1 10 µM [inhibitor, single point], COc1cc(/C=C/C(=O)c2c(O)ccc3c(C)cc(=O)oc23)ccc1O 12.6 µM [inhibitor, single point], COC(=O)C1=C(C(=O)OC)[C@@H]2N(Cc3ccccc3)c3ccccc3[C@@]23C[C@@H](C(=O)OC)N(C(=O)c2cccs2)C3=N1 14.1 µM [inhibitor, partial curve, poor fit], Cc1cccc(N2CCN(C(=O)C3CCN(C(=O)c4cc5sccc5n4C)CC3)CC2)c1C 17.8 µM [inhibitor, single point], Cc1ccc(C2Nc3cc(C)c(C)cc3-n3c(-c4ccccc4)c4c(=O)n(C)c(=O)n(C)c4c32)o1 (configuration not stated) 2.24 µM [inhibitor, full curve, poor fit], O=C(Nc1nnc(-c2ccc(Cl)cc2)o1)c1ccccc1Br 28.2 µM [inhibitor, single point], C(=C\c1ccccc1)/CN1CCN(C(CCc2ccccc2)c2nnnn2C2CCCC2)CC1 (configuration not stated) 11.2 µM [inhibitor, single point], Cc1ccc2nc(-c3cccc(SC4CCCCC4)c3)c(NCc3ccccc3)n2c1 17.8 µM [inhibitor, partial curve, poor fit], O=S(=O)(NCC1CCN(Cc2ccccc2)CC1)c1ccccc1C(F)(F)F 28.2 µM [inhibitor, single point], COc1ccccc1OCC(=O)Nc1ccc(S(=O)(=O)N(C)c2ccccc2)cc1 28.2 µM [inhibitor, single point], COc1ccc(CCCC(=O)Nc2cc(C)ccc2OC)cc1 12.6 µM [inhibitor, single point], COc1ccccc1C1CC(=O)Oc2cc(C)c(Br)c(C)c21 (configuration not stated) 11.2 µM [inhibitor, partial curve, poor fit], Cc1ccc(OCc2cc(C(=O)N(C)CC3CCOCC3)no2)cc1C 20 µM [inhibitor, partial curve, poor fit], Cc1c(C(=O)OCC(=O)N2CCC(C)CC2)oc2ccccc12 31.6 µM [inhibitor, single point], Cc1ccccc1CNC(=O)Cc1ccc(NC(=O)N2CCCCc3ccccc32)cc1 22.4 µM [inhibitor, single point], CC(=O)c1sc(NC(=O)CCS(=O)(=O)c2ccc(C)cc2)nc1C 10 µM [inhibitor, single point], Cc1cccc(C)c1NS(=O)(=O)c1ccc2c(c1)[C@H]1C=CC[C@H]1[C@@H](c1ccc(Cl)cc1)N2 10 µM [inhibitor, partial curve, poor fit], CCOC(=O)c1cccc(NC(=O)CSc2nnc(C3CCCCC3)n2CC)c1 11.2 µM [inhibitor, partial curve, poor fit], COc1ccc(C)c(Cn2c(-c3nonc3N)nc3ccccc32)c1 1.41 µM [inhibitor, full curve], O=C1C(=O)N(C/C=C/c2ccccc2)c2ccccc21 11.2 µM [inhibitor, single point], Cc1cccc(CCNC(=O)c2nnc(Cc3ccc(Cl)cc3)o2)c1 3.16 µM [inhibitor, partial curve, poor fit], Oc1ccccc1CN1CCN(C(O)(c2ccccc2)c2ccccc2)CC1 11.2 µM [inhibitor, single point], COc1ccc(CN(Cc2ccco2)C(=O)c2ccccc2F)cc1 7.94 µM [inhibitor, partial curve]

Potency, inactive:
CC1CCN(c2nn3c(=O)c(C(=O)NCCc4ccccc4)cnc3s2)CC1, O=C(O)CSc1nnc(COc2ccccc2)n1-c1ccccc1, Cc1ccc(S(=O)(=O)N2CCN(c3nc(C(C)C)c4c(c3C#N)CC(C)(C)OC4)CC2)cc1, COc1ccc(N=Nc2ccc(CO)cc2)cc1, Cc1c(C(=O)N2CCN(Cc3ccc4c(c3)OCO4)CC2)sc2ncnc(N3CCN(c4ccccc4)CC3)c12, Cc1ccc(F)cc1NC(=O)CCc1c(C)nn(-c2ccc(N3CCOCC3)nn2)c1C, CCOC(=O)c1c(C)oc2nc(C)nc(N3CCN(c4ccccc4F)CC3)c12, CCOC(=O)C1CCCN(C(=O)c2cc3cc(Br)ccc3oc2=O)C1 (configuration not stated), COc1ccccc1CNC(=O)C(C)n1ccc2cc(S(=O)(=O)N3CCCC3)ccc21 (configuration not stated), CCc1cc2c(N3CCCCC3)ncnc2s1

Activity change, negative = inhibition, inactive:
C/C(=N\NC(=O)c1cccs1)c1cccnc1 8.92% [at 7.66 µM]

Activity change, negative = inhibition, inconclusive:
Cc1ccc(NCc2nc3ccccc3n2C)c(C)c1 -85.9% [inhibitor], OC1(c2cccc(C(F)(F)F)c2)CCN(CCN2CCCCC2)CC1 -41.9% [inhibitor]
